Experimental data taken from patent publication US10299477B2 (priority 2015, dated 2019).

Experiments:
Format in all cases: in vivo
Puccinia recondita = assay: Test Example E: Brown rust on wheat; conditions: for Test E control value: Brown rust on wheat; for Test E (control value class): brown rust on wheat, Puccinia recondita, 250 ppm spray
From the text: [Test Example E] Brown Rust on Wheat

Botrytis cinerea = assay: Test Example B: Gray mold on tomato; conditions: for Test B control value: Gray mold on tomato; for Test B (control value class): gray mold on tomato, Botrytis cinerea, 250 ppm spray
From the text: [Test Example B] Gray Mold on Tomato
Seeds of a test plant (tomato variety: Oogata Fukuju) were planted followed by cultivating until three to five first leaves (true leaves) appeared.

[1] = test system: Blumeria graminis f sp. hordei; assay: Test Example D: Powdery mildew on barley; conditions: for Test D control value: Powdery mildew on barley; for Test D (control value class): powdery mildew on barley, 250 ppm spray
From the text: [Test Example D] Powdery Mildew on Barley
After the sprayed dilutions were dried, conidia of Blumeria graminis f sp. hordei were inoculated to the plants by shaking off.

Alternaia brassicicola = assay: Test Example C: Alternaria sooty spot on cabbage; conditions: Alternaria sooty spot on cabbage; for Test C (control value class): 250 ppm spray
From the text: [Test Example C] Alternaria Sooty Spot on Cabbage
Seeds of a test plant (cabbage variety: Shikidori) were planted followed by cultivating until the cotyledons extended.

SMILES | Test E control value (Puccinia recondita) | Test B control value (Botrytis cinerea) | Test D control value [1] | Test C control value (Alternaia brassicicola) | Test E (control value class) (Puccinia recondita) | Test B (control value class) (Botrytis cinerea) | Test D (control value class) [1] | Test C (control value class) (Alternaia brassicicola)
COc1ccc(F)c(-c2cc(Cl)c(=O)n(C)c2-c2c(F)cccc2F)c1 [Compound 93] | H (H shows more than 50% of control values) | H (H shows more than 50% of control values) | H (H shows more than 50% of control values) | H (H shows more than 50% of control values) | – | – | – | –
Cn1c(-c2c(F)cccc2F)c(-c2ccc(F)cc2Cl)ccc1=O [Compound 64] | H (H shows more than 50% of control values) | H (H shows more than 50% of control values) | H (H shows more than 50% of control values) | H (H shows more than 50% of control values) | – | – | – | –
CCN1C(=O)CCC(c2cc(OC)cc(OC)c2)=C1c1c(F)cc(Cl)cc1F [Compound 118] | H (H shows more than 50% of control values) | H (H shows more than 50% of control values) | H (H shows more than 50% of control values) | H (H shows more than 50% of control values) | – | – | – | –
CCn1c(-c2c(F)cccc2F)c(-c2ccccc2F)cc(Br)c1=O [Compound 142] | H (H shows more than 50% of control values) | H (H shows more than 50% of control values) | H (H shows more than 50% of control values) | H (H shows more than 50% of control values) | – | – | – | –
CCn1c(-c2c(F)cccc2F)c(-c2ccc(F)cc2Cl)ccc1=O [Compound 59] | H (H shows more than 50% of control values) | H (H shows more than 50% of control values) | H (H shows more than 50% of control values) | H (H shows more than 50% of control values) | – | – | – | –
COc1cc(OC)c(Cl)c(-c2ccc(=O)n(C)c2-c2c(F)cccc2F)c1 [Compound 30] | H (H shows more than 50% of control values) | H (H shows more than 50% of control values) | H (H shows more than 50% of control values) | H (H shows more than 50% of control values) | – | – | – | –
CCn1c(-c2c(F)cc(Cl)cc2F)c(-c2cc(OC)c(Cl)c(OC)c2)ccc1=O [Compound 122] | H (H shows more than 50% of control values) | H (H shows more than 50% of control values) | H (H shows more than 50% of control values) | H (H shows more than 50% of control values) | – | – | – | –
CCn1c(-c2c(F)cc(OC)cc2F)c(-c2cc(OC)cc(OC)c2Cl)ccc1=O [Compound 73] | H (H shows more than 50% of control values) | H (H shows more than 50% of control values) | H (H shows more than 50% of control values) | H (H shows more than 50% of control values) | – | – | – | –
CCn1c(-c2c(F)cccc2F)c(-c2ccccc2Cl)cc(Br)c1=O [Compound 76] | H (H shows more than 50% of control values) | H (H shows more than 50% of control values) | H (H shows more than 50% of control values) | H (H shows more than 50% of control values) | – | – | – | –
Cn1c(-c2c(F)cccc2F)c(-c2ccccc2I)cc(Cl)c1=O [Compound 115] | H (H shows more than 50% of control values) | L (L shows 50% or less of control values) | L (L shows 50% or less of control values) | L (L shows 50% or less of control values) | – | – | – | –
Cn1c(-c2c(F)cccc2F)c(-c2ccccc2I)ccc1=O [Compound 114] | H (H shows more than 50% of control values) | H (H shows more than 50% of control values) | L (L shows 50% or less of control values) | L (L shows 50% or less of control values) | – | – | – | –
CCn1c(-c2c(F)cccc2F)c(-c2c(F)ccc(OC)c2F)cc(Br)c1=O [Compound 105] | H (H shows more than 50% of control values) | H (H shows more than 50% of control values) | H (H shows more than 50% of control values) | H (H shows more than 50% of control values) | – | – | – | –
CCn1c(-c2ncc(Cl)cc2Cl)c(-c2ccccc2)ccc1=O [Compound 10] | H (H shows more than 50% of control values) | H (H shows more than 50% of control values) | H (H shows more than 50% of control values) | H (H shows more than 50% of control values) | – | – | – | –
CCn1c(-c2ncc(Cl)cc2Cl)c(-c2ccc(F)cc2)cc(Br)c1=O [Compound 25] | H (H shows more than 50% of control values) | H (H shows more than 50% of control values) | H (H shows more than 50% of control values) | H (H shows more than 50% of control values) | – | – | – | –
COc1cc(OC)cc(-c2ccc(=O)n(C)c2-c2c(F)cccc2F)c1 [Compound 28] | H (H shows more than 50% of control values) | H (H shows more than 50% of control values) | L (L shows 50% or less of control values) | H (H shows more than 50% of control values) | – | – | – | –
O=c1c(Cl)cc(-c2ccc(Cl)cc2F)c(-c2c(F)cccc2F)n1CC(F)F [Compound 429] | – | – | – | – | H (H shows more than 50% of control values) | L (L shows 50% or less of control values) | H (H shows more than 50% of control values) | H (H shows more than 50% of control values)
COc1cc(F)c(C2=C(c3ccc(F)cc3Cl)CCC(=O)N2C)c(F)c1 [Compound 36] | H (H shows more than 50% of control values) | H (H shows more than 50% of control values) | H (H shows more than 50% of control values) | H (H shows more than 50% of control values) | – | – | – | –
COCn1c(-c2c(F)cccc2F)c(-c2cc(OC)ccc2Cl)cc(Cl)c1=O [Compound 414] | – | – | – | – | H (H shows more than 50% of control values) | H (H shows more than 50% of control values) | H (H shows more than 50% of control values) | H (H shows more than 50% of control values)
C=CCn1c(-c2c(F)cc(OC)cc2F)c(-c2ccc(F)cc2Cl)ccc1=O [Compound 44] | H (H shows more than 50% of control values) | H (H shows more than 50% of control values) | H (H shows more than 50% of control values) | H (H shows more than 50% of control values) | – | – | – | –
CCn1c(-c2c(F)cc(F)cc2F)c(-c2cc(OC)cc(OC)c2)ccc1=O [Compound 131] | H (H shows more than 50% of control values) | H (H shows more than 50% of control values) | H (H shows more than 50% of control values) | H (H shows more than 50% of control values) | – | – | – | –
COc1cc(F)c(-c2c(-c3cc(OC)cc(OC)c3Br)ccc(=O)n2C)c(F)c1 [Compound 81] | H (H shows more than 50% of control values) | H (H shows more than 50% of control values) | H (H shows more than 50% of control values) | H (H shows more than 50% of control values) | – | – | – | –
CCn1c(-c2c(F)cccc2F)c(-c2cc(OC)cc(OC)c2)ccc1=O [Compound 14] | H (H shows more than 50% of control values) | H (H shows more than 50% of control values) | L (L shows 50% or less of control values) | H (H shows more than 50% of control values) | – | – | – | –
CCn1c(-c2c(F)cccc2F)c(-c2ccc(F)cc2Cl)cc(Cl)c1=O [Compound 62] | H (H shows more than 50% of control values) | H (H shows more than 50% of control values) | H (H shows more than 50% of control values) | H (H shows more than 50% of control values) | – | – | – | –
CCN1C(=O)CCC(c2ccc(F)cc2)=C1c1ncc(Cl)cc1Cl [Compound 24] | H (H shows more than 50% of control values) | H (H shows more than 50% of control values) | H (H shows more than 50% of control values) | H (H shows more than 50% of control values) | – | – | – | –
CCCn1c(-c2c(F)cccc2F)c(-c2cc(OC)cc(OC)c2)ccc1=O [Compound 41] | H (H shows more than 50% of control values) | L (L shows 50% or less of control values) | L (L shows 50% or less of control values) | L (L shows 50% or less of control values) | – | – | – | –
COc1cc(F)c(-c2c(-c3ccc(F)cc3Cl)cc(Br)c(=O)n2C)c(F)c1 [Compound 38] | H (H shows more than 50% of control values) | H (H shows more than 50% of control values) | H (H shows more than 50% of control values) | H (H shows more than 50% of control values) | – | – | – | –
